# PMC5515408
# The list shows a part of the results. At the low end of the ranking, values are background and their order means little.
# Target: MAX:MAX (p21) (UniProt P61244-2)
# Assay: protein-binding microarray (anti-MAX antibody)
# Conditions: PBM: 15 mM Tris-HCl pH 7.5, 100 mM KCl, 0.075% NP40, 7.5 mM beta-mercaptoethanol, 375 ng/ul BSA, 8 ng/ul poly(dA-dT):(dA-dT), 550 ng complex, 60 min, room …; high values mean tight binding; double strand, one strand shown; sequences stand for … in CCGGC…TTAATAGCTAAGATTACTATATCGACG
row,Sequence,binding signal (log2 normalized fluorescence)
1,TGACATGCGGAA,2.74
2,TGAGAGTGTGTA,0.0581
3,TGAATTGCCGTA,-0.48
4,TGAAGGAACGTA,-0.721
5,TGAAAGGTCGTA,-0.323
6,TGATTGTGAGTA,-0.569
7,TGAACCTGTGTA,0.428
8,TGAGATTACGTA,-0.981
9,TGACACGTCGGA,1.39
10,TGAGGGAGAGTA,-0.748
11,TGAAGGCTTGTA,-0.674
12,TTTGACGTGGTA,0.867
13,TGAGGCCTTGTA,-0.802
14,TGAGAATTCGTA,-1.2
15,TGACATTGTGTA,0.726
16,TGATCAAACGTA,-0.623
17,TGACTCGTTGTA,0.601
18,TGAGAGCACGTA,0.492
19,TGACCCTTGTTA,-0.524
20,ACTTACCTCCGG,0.0278
21,TGAAAAAACGTA,-0.383
22,TGAATCAATGTA,-0.461
23,TGACTCAACGTA,-0.0147

row,Sequence,binding signal (log2 normalized fluorescence)
1,TGATCGGTTGTA,-1.02
2,TGAATTTCAGTA,-1.16
3,TGATTACTGGTA,-0.904
4,TGAGGAAAGGTA,-0.736
5,TGAAAAACCGTA,-0.672
6,TGATCCGACGTA,-0.987
7,TGACGACAAGTA,-0.466
8,TCACCCGTGGTT,2.56
9,TGAGTGGAAGTA,-0.199
10,AGACACATGGGA,3.25
11,TGACCAACGGTA,-0.556
12,TGACGTATCGTA,-0.167
13,TGAGTCCTAGTA,-1.16
14,TGACCGGGGGTA,1.54
15,TGACAGGTTGCA,1.38
16,TATGACGTGGTA,1.58
17,TGAGATGATGTA,-0.509
18,TGACCGCCAGTA,-0.256
19,TGAGACGAAGTA,-0.725
20,TGGGCCGTGGTA,0.312
21,TGAGTGCGGGTA,0.109
22,TCAAAGGCCTTA,-0.861
23,TGTCACGTGGCA,3.04

row,Sequence,binding signal (log2 normalized fluorescence)
1,TGAACTCATGTA,1.71
2,TGATTGTCGGTA,-0.547
3,TGAGGGTCGGTA,-0.516
4,TGAGTGGTGGTA,0.505
5,TGAGTGGGTGTA,0.316
6,TGACGGTGAGTA,-0.348
7,TGAATCGAGGTA,-0.219
8,TGAGACCGCGTA,-0.394
9,AGCCACGTGGTA,3.13
10,TGAAAGGCTGTA,-0.2
11,TGACGGGGCGTA,0.428
12,TGAGAACCAGTA,-0.883
13,TGCCACGTGGTG,3.07
14,TGAATGAAAGTA,-0.531
15,TGAGGTCGCGTA,-0.675
16,TGAATCGAAGTA,-1.11
17,TGAGCCTCCGTA,-1.08
18,TTACACCTGGGA,1.69
19,TGACATGAAGTA,0.66
20,TGAGTACCGGTA,-0.993
21,TGATATCCCGTA,-0.793
22,TGATACGGTGTA,-0.45
23,TGATTTGTCGTA,-1.1

row,Sequence,binding signal (log2 normalized fluorescence)
1,TGATGAACAGTA,-0.468
2,TGAACATTAGTA,-0.122
3,TGAACTTCTGTA,-0.745
4,TGATGGCGTGTA,1.52
5,TGACTTGGCGTA,-0.637
6,TGATACGATGTA,-0.608
7,TGAATTTACGTA,-1.05
8,TGACTTCTGGTA,-0.72
9,TGATTATTCGTA,-1.41
10,TTTCACGTGGTA,3.41
11,TGAACAAAGGTA,-0.6
12,TCTGACGTGGTA,1.03
13,TGAGGTGAAGTA,-0.363
14,TGACTCGGCGTA,-0.734
15,TGCCACGTCGTA,2.07
16,TGATATCATGTA,0.461
17,TGAGCTCGCGTA,-0.391
18,TGACCTCCAGTA,-0.145
19,TGATCCGAGGTA,-1.01
20,GGGCACGTGGTC,3.13
21,TGCCACGTGGAA,3.31
22,TGAGTGCAAGTA,0.0591
23,TGAGAAGGAGTA,-0.827

row,Sequence,binding signal (log2 normalized fluorescence)
1,TGAGCGTTCGTA,-0.463
2,TGATGTAAAGTA,-0.17
3,TGAAACGAGGTA,1.04
4,TGAGCAACTGTA,-0.378
5,TGAACTAGGGTA,-0.66
6,TGACTCGCCGTA,0.0811
7,TGAAAACTGGTA,-0.987
8,TGACACGTGCCA,3
9,TATCACGTGGTA,3.15
10,TGACGAGAAGTA,-0.796
11,TAACACGCGGTC,3.15
12,TGACACGGCGTC,1.15
13,TGATCCTTTGTA,-0.81
14,TGAAACCAGGTA,-0.0586
15,TGATCCTAAGTA,-0.9
16,TGACGGCGGGTA,-0.16
17,TGAATAGTGGTA,-0.358
18,TGACCATAAGTA,0.735
19,TGACCCGTGGCA,2.62
20,TGATCTGGAGTA,-0.837
21,TGACGTACAGTA,-0.0346
22,TTACACGTGGGA,3.12
23,TGACACATGGCA,3.15

row,Sequence,binding signal (log2 normalized fluorescence)
1,TGAGGACGTGTA,0.156
2,TGATTTAAGGTA,-0.887
3,TGACGACACGTA,0.437
4,TGACTCGAGGAA,0.872
5,TGATAGAAAGTA,-0.929
6,TGAGATGTCGTA,-0.536
7,TGATTAAAGGTA,-0.83
8,TGAAGCACGGTA,1.29
9,TGACTGATGGTA,0.373
10,TGACCTACTGTA,-0.113
11,TGAACGTGGGTA,2.48
12,TGACAAATGGTG,0.536
13,TGAGCGCCCGTA,-0.763
14,TGAGTGCCGGTA,-0.394
15,TGATGAGTCGTA,-0.776
16,TGACCAATAGTA,-0.432
17,TGACGGGATGTA,0.146
18,TGACACGCGATT,2.61
19,TGACGACCAGTA,-0.263
20,TGAGACTGTGTA,-0.592
21,TGAGGAATGGTA,-0.0673
22,TGATTTTTCGTA,-1.32
